Experimental data from PMC4889068.
No constants are given. Whether binding was seen depends on the method and setting. Binding seen in cells or lysates may run through a third protein. Some entries that bind do so weakly or less than the wild type.

Chains of the proteins cited; added tags and fusions are not shown. Lines headed by an entry give the natural chain unless they say otherwise; changes in a name come on top. Residues count along the entry.
UniProt P08238: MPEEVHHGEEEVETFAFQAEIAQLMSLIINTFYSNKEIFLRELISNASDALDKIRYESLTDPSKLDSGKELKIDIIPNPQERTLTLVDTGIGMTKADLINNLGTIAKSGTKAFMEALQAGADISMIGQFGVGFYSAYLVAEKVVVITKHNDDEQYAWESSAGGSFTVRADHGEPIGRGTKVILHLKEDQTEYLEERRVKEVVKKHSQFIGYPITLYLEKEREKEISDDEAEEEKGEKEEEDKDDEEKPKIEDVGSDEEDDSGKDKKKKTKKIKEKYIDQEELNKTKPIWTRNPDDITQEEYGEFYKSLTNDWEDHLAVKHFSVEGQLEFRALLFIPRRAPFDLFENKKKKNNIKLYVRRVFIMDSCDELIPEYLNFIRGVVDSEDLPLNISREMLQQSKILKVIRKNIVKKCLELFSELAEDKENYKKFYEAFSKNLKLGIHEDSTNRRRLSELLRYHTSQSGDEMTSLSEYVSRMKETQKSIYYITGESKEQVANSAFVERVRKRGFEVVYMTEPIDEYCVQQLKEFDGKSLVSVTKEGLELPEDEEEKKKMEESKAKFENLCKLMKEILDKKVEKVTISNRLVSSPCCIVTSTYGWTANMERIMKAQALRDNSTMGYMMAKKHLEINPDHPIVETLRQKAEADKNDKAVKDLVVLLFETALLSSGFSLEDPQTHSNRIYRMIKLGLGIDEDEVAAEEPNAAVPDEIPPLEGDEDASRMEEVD
Hsp90β(N+M)-3xFLAG: residues 1-546 of P08238
Hsp90β(M+C)-3xFLAG: residues 206-724 of P08238
Hsp90β(M)-3xFLAG: residues 206-546 of P08238

What was measured:
[1] = molecular target: Hsp90β-3xFLAG (full length human Hsp90β with N-terminal FLAG and HA tags) (human) (UniProt P08238); assay: condition: only cells treated with 1 mM novobiocin for 2 hrs; co-IP; as a1, HEp-2 cells expressing Hsp90β-3xFLAG treated with 1 mM novobiocin for 2 hrs before lysis
Hsp90β(M)-3xFLAG (human) = Hsp90β(M)-3xFLAG (human) (UniProt P08238); assay: co-IP; lysate of transfected HEp-2 cells on anti-FLAG agarose, 4°C, 3 hrs, IP buffer 10 mM Tris-HCl pH 7.5, 50 mM KCl, 3 mM MgCl2, 0.1% Triton X-100; eluted with 0.1 M glycine pH 3.5, Western blot; also with cells treated with 1 μM radicicol or 1 mM novobiocin for 2 hrs
[2] = molecular target: Hsp90β(M+C)-3xFLAG (human) (UniProt P08238); assay: as above
[3] = molecular target: Hsp90α-3xFLAG (full length human Hsp90α with N-terminal FLAG and HA tags) (human) (UniProt P07900); assay: as above
[4] = molecular target: Hsp90β(N+M)-3xFLAG (human) (UniProt P08238); assay: as above
[5] = molecular target: Hsp90β-3xFLAG (full length human Hsp90β with N-terminal FLAG and HA tags) (human) (UniProt P08238); assay: as above
[6] = molecular target: Hsp90β-3xFLAG (full length human Hsp90β with N-terminal FLAG and HA tags) (human) (UniProt P08238); assay: condition: only cells treated with 1 μM radicicol for 2 hrs; co-IP; as a1, HEp-2 cells expressing Hsp90β-3xFLAG treated with 1 μM radicicol for 2 hrs before lysis

Measured: binding

B1: Sgt1 (Suppressor of G2 allele of Skp1), endogenous in HEp-2 cells (protein, UniProt Q9Y2Z0 1-365)
chain: MAAAAAGTATSQRFFQSFSDALIDEDPQAALEELTKALEQKPDDAQYYCQRAYCHILLGNYCVAVADAKKSLELNPNNSTAMLRKGICEYHEKNYAAALETFTEGQKLDIETGFHRVGQAGLQLLTSSDPPALDSQSAGITGADANFSVWIKRCQEAQNGSESEVWTHQSKIKYDWYQTESQVVITLMIKNVQKNDVNVEFSEKELSALVKLPSGEDYNLKLELLHPIIPEQSTFKVLSTKIEIKLKKPEAVRWEKLEGQGDVPTPKQFVADVKNLYPSSSPYTRNWDKLVGEIKEEEKNEKLEGDAALNRLFQQIYSDGSDEVKRAMNKSFMESGGTVLSTNWSDVGKRKVEINPPDDMEWKKY
binds: [3] | [5]
no binding: all other assays above
